# From the antibiotic and cytotoxicity screens of Wong et al. (2023)
# The other results are listed elsewhere or left out.
# Tested on: HSkMC (human skeletal muscle cells)
# Test: cytotoxicity call (relative viability < 0.9)
# Conditions: 10 µM
row,Compound,cytotoxicity call
1,C[C@@H]1CN([C@@H](C)CO)C(=O)c2cc(NC(=O)CCN3CCOCC3)ccc2O[C@H]1CN(C)S(=O)(=O)c1cccs1,inactive
2,COc1ccc(S(=O)(=O)N(C)C[C@H]2OCc3cnnn3CCCC(=O)N([C@@H](C)CO)C[C@H]2C)cc1,inactive
3,C[C@H]1CCCCO[C@H](CN(C)Cc2ccncc2)[C@@H](C)CN([C@@H](C)CO)C(=O)c2cc(NC(=O)Nc3ccc(C(F)(F)F)cc3)ccc2O1,inactive
4,CO[C@H]1CN(C)C(=O)c2cc(NC(=O)CC(F)(F)F)ccc2OC[C@H](C)N(C(=O)C2CCOCC2)C[C@@H]1C,inactive
5,C[C@@H]1CN([C@@H](C)CO)C(=O)c2cc(NC(=O)Cn3cnnn3)ccc2O[C@H]1CN(C)S(=O)(=O)c1cccs1,inactive
6,CCS(=O)(=O)NCC[C@H]1CC[C@H](NS(=O)(=O)c2cccc(F)c2)[C@@H](CO)O1,inactive
7,C[C@@H]1CN([C@H](C)CO)C(=O)c2cc(NC(=O)c3ccccc3)ccc2O[C@@H](C)CCCCO[C@@H]1CN(C)Cc1ccc2c(c1)OCO2,inactive
8,C[C@@H]1CN([C@H](C)CO)C(=O)c2cc(NC(=O)c3ccncc3)ccc2O[C@@H](C)CCCCO[C@@H]1CN(C)C(=O)C1CCCCC1,inactive
9,O/N=C/c1ccccc1C(F)(F)F,inactive
10,C[C@@H]1CN([C@H](C)CO)S(=O)(=O)c2ccc(Br)cc2O[C@@H]1CN(C)S(=O)(=O)c1ccc(F)cc1,inactive
11,CC(C)NC(=O)N(C)C[C@@H]1Oc2ccc(NC(=O)C3CCCCC3)cc2C(=O)N([C@@H](C)CO)C[C@@H]1C,inactive
12,CC1(C)C(=O)C=CC2(C)C1CC(=O)C1(C)C2CCC2(C)C(c3ccoc3)OC(=O)C3OC321 (centres undefined),inactive
13,COc1cccc(NC(=O)N(C)C[C@H]2Oc3ncc(C#Cc4cccnc4)cc3C(=O)N([C@@H](C)CO)C[C@@H]2C)c1,inactive
14,C[C@@H]1CN([C@@H](C)CO)C(=O)c2cccc(NC(=O)CCCCCC(=O)Nc3ccccc3N)c2O[C@@H]1CN(C)C(=O)Nc1ccc(F)cc1,inactive
15,C[C@@H]1CN([C@@H](C)CO)C(=O)c2cccc(NS(C)(=O)=O)c2O[C@@H]1CN(C)C(=O)Nc1ccc(F)cc1,inactive
16,C[C@H]1CN([C@@H](C)CO)C(=O)c2cc(Br)cnc2O[C@H]1CN(C)S(=O)(=O)c1ccccc1F,inactive
17,C[C@@H]1CN([C@@H](C)CO)C(=O)c2cc(-c3ccncc3)cnc2O[C@H]1CN(C)Cc1ccc(Oc2ccccc2)cc1,inactive
18,C[C@@H]1CN([C@H](C)CO)C(=O)c2cccc(NS(C)(=O)=O)c2O[C@H]1CN(C)Cc1ccc2c(c1)OCO2,inactive
19,CO[C@@H]1CN(C)C(=O)c2cc(NC(=O)Nc3ccc(Cl)cc3)ccc2OC[C@H](C)N(C(=O)Nc2c(C)noc2C)C[C@H]1C,inactive
20,C[C@@H]1CCCCO[C@@H](CN(C)S(=O)(=O)c2ccc(F)cc2)[C@@H](C)CN([C@H](C)CO)C(=O)c2cc(NC(=O)CCCCCC(=O)Nc3ccccc3N)ccc2O1,inactive
21,COc1ccc(CN(C)C[C@@H]2Oc3c(NC(=O)c4ccc(-c5nccs5)cc4)cccc3C(=O)N([C@H](C)CO)C[C@H]2C)cc1,active
22,CCC(=O)Nc1cccc([C@@H](CCc2ccc(OC)c(OC)c2)OC(=O)[C@@H]2CCCCN2C(=O)C(=O)C(C)(C)CC)c1,inactive
23,O=C(C1=C[C@H](C2CC2)C[C@H](OCc2ccc(CO)cc2)O1)N1CCN(Cc2ccc3c(c2)OCO3)CC1,inactive
24,C[C@@H]1CN([C@@H](C)CO)C(=O)c2cc(NC(=O)CCC(F)(F)F)ccc2O[C@H]1CN(C)Cc1ccc(C(F)(F)F)cc1,inactive
25,COc1ccc2c3c(n(c2c1)C)[C@@H](CO)N(C[C@]13CCN(CC1)C(=O)CN(C)C)C(=O)C1CCCCC1,inactive
26,C[C@@H]1CN([C@H](C)CO)C(=O)c2cc(NC(=O)NC3CCCCC3)ccc2O[C@@H](C)CCCCO[C@H]1CN(C)C(=O)C1CCCCC1,inactive
27,Cc1noc(C)c1NC(=O)Nc1ccc2c(c1)C(=O)N([C@H](C)CO)C[C@H](C)[C@H](CN(C)C(=O)Nc1ccc3c(c1)OCO3)OCCCC[C@H](C)O2,inactive
28,C[C@@H]1CN([C@H](C)CO)C(=O)c2cc(NS(=O)(=O)c3ccc(Cl)cc3)ccc2O[C@H]1CN(C)Cc1ccc(C(=O)Nc2ccccc2N)cc1,inactive
29,C[C@H]1CCCCO[C@H](CN(C)C(=O)CCC(F)(F)F)[C@@H](C)CN([C@@H](C)CO)C(=O)c2cc(NS(=O)(=O)c3ccc(Cl)cc3)ccc2O1,inactive
